In ChEMBL document CHEMBL5308541, “MAIP: An Open-Source Tool to Enrich High-Throughput Screening Output and Identify Novel, Druglike Molecules with Antimalarial Activity” (ACS Med Chem Lett, 2023):
The campaign covered roughly 150,000 compounds. About 540 (0.36%) showed an effect of 50% or more. Some of the results follow.

tested on: Plasmodium falciparum; test: Primary screen in NF54 nanoGlo assay, in single point, at 2uM, 72h; a lower Z score goes with more inhibition; assay type: functional, Erythrocyte; conditions: timepoint 72 hour

| SMILES | % Inhibition | Z score |
| --- | --- | --- |
| Cc1cnccc1NCCNCc1ccc(OC(C)C)c(Cl)c1 | 79% | -17.03 |
| C[C@H](NC(=O)c1cnc(-c2ccncc2)s1)C1CCN(CC(F)(F)F)CC1 | -10% | 1.99 |
| COCC1(C(=O)N2CCc3c(nc(N)[nH]c3=O)C2)CCC1 | 1% | -0.18 |
| O=S(=O)(Nc1ccc(Nc2cc(-n3ccnc3)ncn2)cc1)c1ccc2ccccc2c1 | 16% | -2.46 |
| COC1CC(C(=O)N2CCC(c3c(-c4ccccc4)[nH]c4ccccc34)CC2)CCC1O (stereo unspecified) | -6% | 1.06 |
| CCN(CC)CCCN(CC)c1ncnc2[nH]ccc12 | -8% | 1.17 |
| CC1CN(Cc2ccc3cn[nH]c3c2)CCN1CC(O)c1ccccc1 (stereo unspecified) | -9% | 1.86 |
| C[C@@H](c1ccc(-c2ccc3cc[nH]c(=O)c3c2)cc1)N1CCOCC1 | -6% | 1.35 |
| C[C@@H](CN1CCN(C)CC1)N1CCC2(CCN(C)C2)CC1 | 0% | 0.08 |
| Cc1cc(N2CCCN(C[C@H]3Cc4c(C)nc(C)nc4O3)CC2)ccn1 | 6% | -0.97 |
| Brc1cccc(NCCNC2CCN(Cc3cccnc3)CC2)c1 | 28% | -4.96 |
| CCNc1ncc(C(=O)NCCN2CCC[C@H](c3ccccc3)C2)cn1 | -12% | 2.39 |
| OC[C@H]1CC[C@H](NCc2ccc3[nH]cnc3c2)CC1 | 10% | -1.75 |
| COc1nc2c(cc1CNC(=O)CC(C)C)C(=O)N(CCc1ccccn1)C2 | -9% | 1.65 |
| COCc1nc(CC(=O)Nc2cc(Cl)c(O)c(Cl)c2)cs1 | -3% | 0.52 |
| Cc1cc(-c2ccc(OCC(=O)NCc3nc4ccccc4[nH]3)c(CN3CCOCC3)c2)c2ccccc2n1 | 2% | -0.33 |
| O=C(NC[C@H](N1CCNCC1)C(F)(F)F)c1ccc2c(c1)CCNCC2 | 3% | -0.56 |
| c1ccc(-n2cnc3c(N[C@H]4CCNC5(CCC5)C4)ncnc32)cc1 | 3% | -0.61 |
| O=C1c2cccc3cccc(c23)C(=O)N1Cc1nnc(Nc2ccccc2)s1 | -10% | 1.53 |
| CCN1C2CCC1CC(NCc1cccc(CN3CCCC3)c1)C2 (stereo unspecified) | 21% | -3.2 |
| COc1ccc2[nH]c(CN[C@H]3CCOC3)cc2c1 | -9% | 1.96 |
| Cc1ccccc1-c1cccc(CN2CCC[C@H](N3CCC(CO)CC3)C2)c1 | -7% | 1.2 |
| Cc1c(CNCCN2CCCC[C@@H]2CO)[nH]c2c(Cl)cccc12 | -7% | 1.22 |
